Source: the supplement of paper PMC10126150
Sequences with one replicate were seen in a single cluster, so their values are uncertain.

Test system: ATP
Assay: switch fluorescence ratio, 500 uM ATP over buffer (Cy3 cluster intensity, sum of 5 cycles each) (fold (ratio)); higher = stronger signal-on switching upon ATP binding; sequences stand for … in TCGTCGGCAGCGTCAGATGTGTATAAGAGACAGTTTTTTTTTTTTTTTTTTTTTTTTT…TC
Details: aptamer strand: ATP DNA aptamer (quencher-CACCTGGGGGAGTATTGCGGAGGAAGG + anchor), 100 nM annealed; ATP concentration: 500 uM; one replicate
Outline: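 Five buffer/ATP imaging cycles were run on Cy3-labelled switching-strand clusters on a modified Illumina MiSeq flow-cell, with NaOH stripping and re-annealing between cycles. In each cycle, clusters annealed to 100 nM quencher-labelled ATP aptamer were imaged in selection buffer, then after 15 min with 500 uM ATP at 22 °C. Per cluster, the fluorescence ratio is summed target-cycle over summed buffer-cycle Cy3 intensity, averaged per switch-domain sequence. Only clusters within 100-1000 RFU were kept.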
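Also: ATP exposure 15 min at 22 °C before imaging.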

Row | Sequence | switch fluorescence ratio
1 | TCTTACTCA | 1.27
2 | GACCTTGGAC | 1.01
3 | GTGATATAAC | 1.03
4 | GCCTTTCCTG | 1.01
5 | AATGTCCACG | 1.01
6 | TGCTTTGTGC | 1.04
7 | AACTTAGTTT | 1.07
8 | GAGGTACATC | 0.993
9 | TGGCCCATGA | 1.04
10 | TAACGTCGGA | 0.946
11 | ATAACGTGTT | 0.982
12 | CCTCACATCA | 1.28
13 | AGAACTTAGT | 0.982
14 | GCGTAATGGC | 1.11
15 | CTTGTCGC | 0.986
16 | GAGGTGTATC | 0.974
17 | GCAAGGTAAT | 1.01
18 | CATTTCCAAA | 1.04
19 | TGCTTCCATT | 1.02
20 | GAAGACCGGA | 0.987
21 | TTGAGTTGCT | 1.03
22 | ATCTTTGGT | 0.967
23 | CCATGAAAGG | 0.98

Row | Sequence | switch fluorescence ratio
24 | ACCAGTCTTA | 1.05
25 | CTTAATTGGG | 0.925
26 | CCGGAAAGCA | 1.01
27 | TCGTTTAAGT | 0.989
28 | CCTATATGGT | 1.02
29 | AGCCGCGGGT | 1.07
30 | TTACGTACGC | 1.54
31 | TGCTTAATAC | 2.12
32 | TCTTAATTAC | 1.07
33 | CTTACCATA | 1.1
34 | TCAGGCGCAG | 0.999
35 | CCAAAGCCCA | 1.15
36 | TGAAGTTATT | 1.05
37 | TCGCGAGCTC | 1.31
38 | CGTATAGCTT | 1.06
39 | CAACCGTCGA | 1.32
40 | AGGAAGAGCA | 1.04
41 | TTGTTGATGG | 0.998
42 | CTGACTTGTT | 0.973
43 | TGGTCGCCCA | 0.981
44 | AACTGTACA | 1.49
45 | TTTTATACGA | 1.06
46 | GCCCCTTCTT | 1.02

Row | Sequence | switch fluorescence ratio
47 | CGACCTCTCG | 1.04
48 | TGATGAATGT | 0.99
49 | AACCTGTGTG | 1.03
50 | ACTCCTCATT | 1.81
51 | GCAATCCAC | 2.92
52 | AGCGAGCAGG | 1.14
53 | GTCTGGGCAC | 1.02
54 | CGAGGGCATC | 1.07
55 | CGGAAACGAA | 1.04
56 | ACCACAGGGC | 1.41
57 | TATAGGTGTC | 0.994
58 | CCCTACGTGT | 1.14
59 | TAGGGGTTG | 0.978
60 | AGCAAGAAAT | 0.988
61 | CCCAGGGAGG | 1.19
62 | AGAAAAACAC | 1.04
63 | CAAGCAGAGT | 1.04
64 | CGTTGGTAAT | 3.89
65 | TTCTACGAGG | 0.983
66 | GTTACCTTAA | 1.1
67 | AGAAGGACGT | 1.01
68 | GTGTTCTG | 1.02
69 | CACCTTAAAA | 1

Row | Sequence | switch fluorescence ratio
70 | AGCGGGGGA | 0.995
71 | TTTATGGT | 1.02
72 | AGATCCGTCC | 1.18
73 | TTCAGCAGGG | 1.05
74 | AATTGTGTAG | 1.03
75 | ACGGCCACCC | 1.66
76 | AAAATCGGCT | 0.947
77 | GCTAGCGAAA | 0.973
78 | AAGCAGAGCT | 1.01
79 | GTGATCAAG | 1.06
80 | GCTCGTCGTA | 0.989
81 | GTTATTTGAA | 0.991
82 | TGGGCCCTAG | 0.99
83 | CGTCTTTGAA | 0.984
84 | GGGGCATCGA | 1.04
85 | CATGAGCCAC | 1
86 | TTAACAGTCT | 1.05
87 | TAGTCAGCTA | 1.02
88 | TAGATGGCCC | 0.991
89 | TTTCGCTTCC | 2.26
90 | GCAGCGCCGT | 0.995
91 | CTTCATTTT | 1.29
92 | ACTTTGGCCA | 1.06

Row | Sequence | switch fluorescence ratio
93 | CGGAGCTAGT | 2.16
94 | TAGATCGGCG | 1.04
95 | TGATGAGTTG | 0.979
96 | TTGTGAACC | 1.01
97 | GCTTGCCAAC | 0.969
98 | GGCGGACTGA | 0.992
99 | CAGCATATA | 1.49
100 | GCTGTAGGCA | 1.01
101 | ACAGATGCAA | 0.981
102 | TCAGCATTTG | 1.06
103 | AGACTGAAAC | 1.05
104 | GAGCCATTAT | 1.02
105 | TCGCGGTAAC | 2.55
106 | GTAAGCATG | 0.965
107 | GCAGACGAGG | 1.01
108 | TCAGCGAATC | 3.33
109 | TAGTTGTCTG | 0.995
110 | GGCCGAGTTC | 1
111 | AGGTCCGTTT | 1.01
112 | TGGGCTTGCG | 0.985
113 | AGGGCTGG | 0.948
114 | CGTCCAGGGA | 1.18
115 | TGCCCAGAGT | 1.15

Row | Sequence | switch fluorescence ratio
116 | GTAGGGGCTT | 0.984
117 | TAATTGCT | 0.969
118 | TTCTTGGTTT | 0.978
119 | GATCGCTTTT | 1.9
120 | AGTGCGACGT | 1.02
121 | ACAAAAGTAA | 1.04
122 | ATGAGCAGTT | 0.976
123 | ATTAAACCGC | 1.19
124 | CCTAGTGCAC | 1.02
125 | CGGGTGGAGT | 0.983
126 | AGAGCGATTC | 1.42
127 | TATTCCTCAC | 2.61
128 | CTCTGTCGAC | 1.19
129 | CAAACCTCTT | 1.04
130 | GGTGAAAGT | 1
131 | ACTAAAATCA | 1.12
132 | TCAGGGTATT | 0.979
133 | GAACCACGGC | 1.03
134 | ATTCTGAAAT | 1.01
135 | TGGGCGTAGG | 1
136 | TGTCTTTGCG | 0.977
137 | GCGTGTCGGA | 0.999
138 | TTCAACGCGA | 1.59

Row | Sequence | switch fluorescence ratio
139 | TTATCATGAC | 1.03
140 | AAATGCCTAG | 0.949
141 | TAGCGTGGGG | 0.997
142 | GGAAGCTTTA | 0.982
143 | TTCACCGAC | 1.53
144 | AGCCGGTGT | 1.02
145 | GCCGTGTCAT | 0.966
146 | GAGTACCGGG | 1.01
147 | CCCCTACACA | 1.07
148 | CGATACAGTT | 1.04
149 | CACTCGAGTT | 1.04
150 | GGTATTGCA | 0.985
151 | CACTGTCGCG | 1.01
152 | GGGAATTGCT | 0.981
153 | AGCAACGGGT | 0.954
154 | AGTGCATGCG | 1.03
155 | AGAGCTGGAG | 0.969
156 | CAGTCGGGGG | 0.996
157 | TGGAATAAAA | 0.965
158 | GGTATACCTT | 1.04
